Laboratory results published in PubChem BioAssay AID1346428 (National Center for Advancing Translational Sciences (NCATS), 2018).
Where “and” joins values, the source holds several entries; their conditions need not be identical. Identical values can stand only once. The whole screen tested about 48,000 compounds, of which about 1,200 (2.5%) were called active. About 2% were inconclusive and are not listed.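 How the source made its calls: active means activation of at least 60% and not above a set upper limit (about 1 call in 100 departs from these limits); inconclusive means activation of 40% to 60%, or above that upper limit; inactive means activation under 40%.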 This is one part of the list.

Target: Probable G-protein coupled receptor 32 (Homo sapiens) (UniProt O75388)
Sequence of UniProt O75388 (O75388 whole entry, looked up): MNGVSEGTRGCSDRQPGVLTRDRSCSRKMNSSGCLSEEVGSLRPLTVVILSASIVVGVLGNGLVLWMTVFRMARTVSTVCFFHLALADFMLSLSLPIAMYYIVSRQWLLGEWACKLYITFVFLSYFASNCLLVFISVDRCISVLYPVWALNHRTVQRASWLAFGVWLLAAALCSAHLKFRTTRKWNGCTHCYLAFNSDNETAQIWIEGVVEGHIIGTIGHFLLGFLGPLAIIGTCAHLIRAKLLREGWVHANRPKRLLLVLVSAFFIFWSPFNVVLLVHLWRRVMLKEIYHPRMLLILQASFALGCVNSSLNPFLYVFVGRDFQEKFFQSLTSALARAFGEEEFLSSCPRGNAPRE
Assay: qHTS for Agonists of Human Resolvin D1 Receptor DRV1; further: 0% is about no effect
Details: CHO-K1 GPR32 beta-arrestin PathHunter luminescence, 90 min; at 76.9 µM; stronger effect = higher value; zero percent set by DMSO-only wells
In short: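 GPR32 activation in stably transfected CHO-K1 cells, detected as beta-arrestin recruitment by enzyme-fragment complementation. Compound exposure: 90 min, 37 °C.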

activation, inactive:
CCOc1ccc(NC(=O)NCCCN2CCN(c3ccc(OC)cc3)CC2)cc1 -2.65%
Cc1c(CCC(=O)NCCc2ccccc2F)c(=O)oc2cc(O)ccc12 49.3%
COc1ccc2c(c1)C(=O)N(CCc1ccc(S(=O)(=O)NC(=O)NC3CCCCC3)cc1)C(=O)C2(C)C 2.59%
CN(C)c1ccc(/C=C(\C#N)c2nc3ccccc3c(=O)[nH]2)cc1 -4.45%
Cc1ccccc1NC(=O)Cn1c(=O)n(Cc2ccco2)c(=O)c2cccnc21 -21.9%
Cc1ccc(-c2cc(C(=O)NCCc3ccccc3)c3ccccc3n2)cc1C -19.8%
O=C(NCc1ccc(F)cc1)c1cccc(N2CCCS2(=O)=O)c1 12.6%
O=C(NCCc1ccccc1)c1cc(-c2ccccc2)nc2n[nH]c(-c3ccccc3)c12 -14.7%
CCc1ccc2c(c1)c(=O)c(C(=O)c1ccc(C)cc1)cn2CC(=O)Nc1ccc2c(c1)OCCO2 -0.254%
CC(C)c1ccc(NC(=O)CNC(=O)Cn2ccc3ccccc3c2=O)cc1 7.17%
Cc1ccc(Cl)cc1NC(=O)C1CCCN(S(=O)(=O)c2c(C)noc2/C=C/N(C)C)C1 (stereo not drawn) -23.8%
COC(=O)c1c(NC(=O)CCCOc2ccccc2)sc2c1CCC(C)C2 (stereo not drawn) 7.01%
CCC(=O)N1CCc2cc(S(=O)(=O)CCC(=O)N(C)c3ccc(OC)cc3)ccc21 13.6%
Fc1ccc(C2=NC(c3cccc(C(F)(F)F)c3)=Nc3ccccc3N2)cc1 15.8%
Cc1cc(Nc2cccc(Cl)c2)nc2ccc(NC(=O)c3ccc(F)cc3Cl)cc12 11.8%
O=C(Nc1ccccc1C(=O)OCc1cc(=O)n2ccsc2n1)c1cccc(F)c1 -2.13%
Cc1ccc(S(=O)(=O)N2CCCc3cc(NC(=O)c4ccc(C(C)(C)C)cc4)ccc32)cc1 -7.79%
COc1cccc(-c2nc(CS(=O)(=O)CC(=O)NCCCc3ccccc3)c(C)o2)c1 -8.99%
Cc1ccc(CSc2ncccc2C(=O)O)cc1 1.66%
Cc1nc(-c2ccc(F)cc2)sc1CCNC(=O)C(=O)Nc1ccc2c(c1)OCO2 9.9%
CCOC(=O)c1cccc(NC(=O)NCc2ccc3c(c2)CCN3C(=O)CC)c1 -5.04%
CCN(CC)c1ccc(NC(=O)c2sc3nc(-c4ccccc4)cn3c2C)cc1 1.99%
COc1ccc(N2CCN(C(=O)c3nn(C)c4c3CSc3ccccc3-4)CC2)cc1 -26.3%
Cc1ccc(Cl)cc1NC(=O)Cn1cc(S(=O)(=O)Cc2ccccc2Cl)c2ccccc21 -5.26%
CCC(=O)Nc1ccccc1-c1nc2ccccc2n(CC(=O)c2ccc(Br)cc2)c1=O -3.06%
CC1=C(C(=O)Nc2cccc(C(F)(F)F)c2)C(c2ccccn2)n2ncnc2N1 (stereo not drawn) -8.5%
CCCN(C(=O)NCc1noc2ccc(C)cc12)c1ccc(Cl)c(Cl)c1 -16.9%
CCc1ccc(C(=O)c2cn(CC(=O)Nc3ccc(OC)c(Cl)c3)c3nc(C)ccc3c2=O)cc1 35%
O=C(Cn1c(SCCOc2ccccc2Cl)nc2ccccc21)N1CCCCC1 -17.7%
COc1ccc([C@@H]2Sc3ccccc3N(CCN(C)C)C(=O)[C@@H]2OC(C)=O)cc1 9.05% and -5.05%
Cc1cc(C)cc(OCC(=O)NCC2(N3CCOCC3)CCCCC2)c1 -26.4%
Cc1cn([C@H]2C[C@H](N=[N+]=[N-])[C@@H](CO)O2)c(=O)[nH]c1=O 0.553% and -2.74%
CCCc1cc(=O)[nH]c(SCc2nc(-c3ccc(OC)cc3)no2)n1 -7.74%
Cc1ccc(C)c(NC(=O)Cn2c(=O)n(Cc3ccco3)c(=O)c3ccc(C(=O)NC4CCCC4)cc32)c1 -25.5%
COc1ccc(CC(=O)NCCc2csc(-c3cccc(F)c3)n2)cc1OC 27.7%
N#Cc1ccccc1Cn1c(=O)n(-c2ccc(F)c(Cl)c2)c(=O)c2sccc21 -5.66%
CCOC(=O)c1ccccc1NC(=O)c1sc2ncn(CC)c(=O)c2c1C -0.697%
Cc1ccc(S(=O)(=O)Nc2cc3c(C(=O)OCc4ccccc4)c(C)oc3c3ccccc23)cc1 3.89%
O=C(C1CCN(c2ncnc3c2nc2n3CCCCC2)CC1)N1CCN(c2ccccc2)CC1 3.8%
CCCNC(=O)Cn1c(=O)cc(C)c2c(C)nn(-c3cccc(F)c3)c21 0.619%
COc1cc(Cl)c(C)cc1NC(=O)NC1COc2ccccc2C1 (stereo not drawn) -7.39%
CCc1ccc(-c2ccc3nnc(SCC(=O)Nc4cccc(C(C)=O)c4)n3n2)cc1 4.12%
COc1ccc(CCNC(=O)CN2C(=O)COc3ccccc32)cc1OC -9.92%
COc1cccc(CNC(=O)c2ccc(CS(=O)c3ccccc3)o2)c1 (stereo not drawn) -9.8%
COc1ccc(NC(=O)c2oc3ccccc3c2NC(=O)c2cc(OC)c(OC)c(OC)c2)cc1 -1.73%
Cc1onc(-c2ccccc2)c1C(=O)Cl 24.5%
COc1ccc(C2=C(N3CCN(c4cc(Cl)ccc4C)CC3)c3ccccc3C2=O)cc1 42.1%
CCc1ccccc1NC(=O)C(CCSC)NS(=O)(=O)c1ccc2c(c1)oc(=O)n2C (stereo not drawn) -24.6%
CCOC(=O)N1CCN(C(=O)c2cnn(-c3cccc(F)c3)c2-n2cccc2)CC1 -2.43%
Cc1ccccc1-c1nn2c(=O)cc(CN3CCN(C(=O)c4ccccc4Br)CC3)nc2s1 1.56%
N#Cc1c(-c2ccccc2)cc(-c2ccccc2)nc1SCC(=O)Nc1ccc(Cl)cc1 -14.5%
Cc1cccc(Oc2nc3c(c(=O)n(C)c(=O)n3C)n2C)c1C 3.85%

activation, active:
COc1ccc(NC(=O)c2c(C)oc3ccc(O)c(CN4CCCC(C)C4)c23)cc1 (stereo not drawn) 61.2%
